{
  "source": "paper PMC12136788",
  "binders": {"B1": {"name": "chr8:81716360:81716361:+_ENSMUSG00000071064_ENSMUST00000098614|mus_hu|FALSE|FALSE (ssRNA)", "RNA": "GGGAGUUCUACAGUCCGACGAUCCAAGUAGGCUCCCCAUCCAUGGCGGGAUGACUGGCAAAGGGAGGUGUAGCACACCUACUAGGUGUGGGGAAGAGGGGCUGGCGUGGAGGGGACUGAGGAGACCAUGGUGUGGACAGACAGCAACAGAGGAUUGAGCAUCA"}, "B2": {"name": "chr14:89307221:89307222:+_ENSG00000165533_ENST00000346301|hu_mus|hu_hu_hu_mus_False|28_38 (ssRNA)", "RNA": "GGGAGUUCUACAGUCCGACGAUCUCCUGUUUGGUUAGUGCCAGGGAGCUUCAAAGAUGUGCCAGGGCGUGGGACCUGAGCAAUAGCAUUUUCAUCCAGCAUCAUUUCUGCAAUUCCUUCCUGGUCCACAUCAAUUUCAUCUAUCAACAGAGGAUUGAGCAUCA"}, "B3": {"name": "chr9:91931296:91931297:+_ENSG00000123975_ENST00000314355|hu_hu|hu_hu_hu_mus_True|78_98 (ssRNA)", "RNA": "GGGAGUUCUACAGUCCGACGAUCAGAUUAGAUGAUCCCAGAUAAACUUCAUUUUUGUUGAUCUUUUGGAAGAGGUCGUCUAAAGAGAAGAAUAUGCGGUUCUGGCUCAUGAAUCAUGUAAUGAACCCAUCCUAGACUCUGUUGCAACAGAGGAUUGAGCAUCA"}, "B4": {"name": "75320184_75320304_6387_CDS_ENSMUSG00000020850_ENSMUST00000102510|mouse|control|control (ssRNA)", "RNA": "GGGAGUUCUACAGUCCGACGAUCGGCACGAAGAUCAGAUAUGCAGAUGAACUUCUUAAGCACGUUUUUCGGAAGAAUGUACGUAUAACCAGUCUCCUUAAUGUCAUCAGAUGAAACAUAAAUAUGAUUGGUCCGCAGAUGCAGCAACAGAGGAUUGAGCAUCA"}, "B5": {"name": "36136323_36136443_5331_3pUTR_ENSG00000100320_ENST00000405409|human|control|control (ssRNA)", "RNA": "GGGAGUUCUACAGUCCGACGAUCGUACAUAGGAAAAGGAAAGGGAGGGAAGAGGCUUUUGGACAGUAACAUUUCCAAAAAAAUAUAGUGUUUUAUGCAACAGAGAAUCAAGUUUCACUGUGUAUACUACAAAUGGUCAAACAUCAACAGAGGAUUGAGCAUCA"}, "B6": {"name": "chr11:46405157:46405158:+_ENSG00000110492_ENST00000395566|hu_hu|hu_hu_hu_mus_False|48_68 (ssRNA)", "RNA": "GGGAGUUCUACAGUCCGACGAUCCCCUCCCCACUUUGGGCACUUGGUGUGGGCGUGAGAGGACAGGAUGAUUGAUUAGAGCUGACAAGCAGACAGAAGGCACUGGUGGGUUAUAUCUUGGGCCUGUGGGAGAGGAGGGCUCCGCAACAGAGGAUUGAGCAUCA"}, "B7": {"name": "67885784_67889917_929_CDS_ENSG00000142864_ENST00000370995|human|control|control (ssRNA)", "RNA": "GGGAGUUCUACAGUCCGACGAUCCCGGUCCUUAUUUUGAAUAGCCUUCCACUCAUCCAAAGUCAUCUCUUUUGGACCCUCCUCUUUUACCUCUUCAACUUCAUUCUCCUUAUUUUCAGUGUCUGCCACUGGAUGAUGUUCUUCCAACAGAGGAUUGAGCAUCA"}, "B8": {"name": "4101213_4101333_793_3pUTR_ENSMUSG00000001467_ENSMUST00000001507|mouse|control|control (ssRNA)", "RNA": "GGGAGUUCUACAGUCCGACGAUCCACAGGUGUUGUCAGCCGACCGUAGACUUCUUCUGCAUUCAGGUCUUCGUUUUUACUAUUGAAGAGCAGCGCAGCUGCAUCACUCCCCAGAAGGUAAGUGAAGGUCUUGCCCACCAUGGUCAACAGAGGAUUGAGCAUCA"}, "B9": {"name": "chr16:16926518:16926519:+_ENSMUSG00000026181_ENSMUST00000027373|mus_mus|FALSE|FALSE (ssRNA)", "RNA": "GGGAGUUCUACAGUCCGACGAUCGAGGGGGACUUGAGCUCACAGCCACCCUUCUCCCUGUUCCUUCCCUGAGCCUCUACUAAGCCACCCAUUAUCCUGGCUAGGGGAUUCUUUUGGGAAGAGACUCUGAGGAGGAGGUGGCCACAACAGAGGAUUGAGCAUCA"}, "B10": {"name": "25857120_25857240_208_5pUTR_ENSMUSG00000003378_ENSMUST00000003468|mouse|control|control (ssRNA)", "RNA": "GGGAGUUCUACAGUCCGACGAUCCUCCGAUGCUGGGUGCUGGUGAGGCUGGGGCCGGGGGAGAGGGCAGUCCACUGGGCCCCCUCCCCCGCCGCCGGCGGUGGCCCCCAACUAAUCCAAAACGGUGUCUCCCCAGCAGCGGGGCAACAGAGGAUUGAGCAUCA"}, "B11": {"name": "chr3:148802587:148802588:-_ENSG00000071794_ENST00000310053|hu_mus|hu_hu_hu_mus_False|1_28 (ssRNA)", "RNA": "GGGAGUUCUACAGUCCGACGAUCUCCAACAACUUGUCCUCUCAUAGUUCCAAAUAAAACCAAAUCUUGCUCUUCAUCACUCGUUAGGAAGUCAUCUGGAGGAAUAACAUCUUGGAAUUCAAAAUGUGGCAAGAAAGUUGGAUACAACAGAGGAUUGAGCAUCA"}, "B12": {"name": "65597685_65604084_320_CDS_ENSMUSG00000037890_ENSMUST00000041892|mouse|control|control (ssRNA)", "RNA": "GGGAGUUCUACAGUCCGACGAUCUUUUGACCAAAGAAGGAAAGACAUUUGAUCCCUCAUGCCAUUGUCCAGCUGGCUGGUUUUAUUUGUGUUGGCAUCCCAUAGAUAAAUGCAACUAGACUUCUCAGCAAUCACUGCCAGGAUCAACAGAGGAUUGAGCAUCA"}, "B13": {"name": "chr7:31145180:31145181:-_ENSMUSG00000036957_ENSMUST00000046351|mus_mus|FALSE|FALSE (ssRNA)", "RNA": "GGGAGUUCUACAGUCCGACGAUCAAGCAGUGGCAAACGUGAGAAGAGUGGGUCAGGAGGGAUGGUGGUUAGGCGGUUGGAGGUCAUGUCCAGUCGUGCCAACUUGUGCAGGCGGGAAAAGGCUCCAGCGGGCACUGAAGCCAACAACAGAGGAUUGAGCAUCA"}, "B14": {"name": "chr3:45751083:45751084:+_ENSG00000211456_ENST00000389061|hu_hu|FALSE|FALSE (ssRNA)", "RNA": "GGGAGUUCUACAGUCCGACGAUCCCAUACAAACCGCUGAUCUGCCCUUUCCAAGAGACUCAUUUCUUGGAAUUCAGGACUAGUGUUGGAUAGCCGCUGCAAAGUAUGGGUCAAAUCAUAUGUUGUUGAAAAGUAAAAUCCAUCCAACAGAGGAUUGAGCAUCA"}},
  "note": "This is one part of the list.",
  "data": [
    {"target": "T1, UNK ZnF1-3 (human, UniProt Q9C0B0 31-174)", "T1 sequence": "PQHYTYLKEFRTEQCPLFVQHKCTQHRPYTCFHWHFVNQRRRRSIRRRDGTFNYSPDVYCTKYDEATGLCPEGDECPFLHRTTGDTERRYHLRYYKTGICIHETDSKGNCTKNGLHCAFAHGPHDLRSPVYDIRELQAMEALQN", "test": "nsRBNS (natural sequence RNA bind-n-seq); RBNS binding buffer (assumed for nsRBNS): 25 mM Tris pH 7.5, 150 mM KCl, 3 mM MgCl2, 0.01% Triton X-100, 500 ug/ml BSA, 20 U/ml SUPERase-In, 4 C; UNK is unkempt and MSI1 is Musashi-1; names of the RNAs are library labels; protein concentration not given here; high values mean tight binding", "units": {"binding signal": "enrichment R"}, "values": [
      {"binder": "B1", "binding signal": 1.9},
      {"binder": "B2", "binding signal": 1.11},
      {"binder": "B3", "binding signal": 1.09},
      {"binder": "B4", "binding signal": 0.922},
      {"binder": "B5", "binding signal": 2.59},
      {"binder": "B6", "binding signal": 1.99},
      {"binder": "B7", "binding signal": 0.423},
      {"binder": "B8", "binding signal": 0.897},
      {"binder": "B9", "binding signal": 0.485},
      {"binder": "B10", "binding signal": 0.769},
      {"binder": "B11", "binding signal": 1.28},
      {"binder": "B12", "binding signal": 0.979},
      {"binder": "B13", "binding signal": 1.2},
      {"binder": "B14", "binding signal": 0.823}
    ]}
  ]
}
